According to the RNAGym collection of RNA variant scans (doi:10.1073/pnas.2313332121):
Variants at the background level are over-represented here.

B1: TPR 5TU (parent)
chain: GGAUCUUCUCGAUCUAACAAAAAAGACAAAUCUGCCACAAAGCUUGAGAGCAUCUUCGGAUGCAGAGGCGGCAGCCUUCGGUGGCGCGAUAGCGCCAACGUUCUCAACUAUGACACGCAAAACGCGUGCUCCGUUGAAUGGAGUUUAUCAUG

Variants of: B1
Experiment: polymerase ribozyme fitness, log enrichment relative to wild type (log ratio); higher = more active; in vitro selection for triplet polymerase activity
How it was run: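 In triplicate, a single round of in vitro selection was run on each mutant library, PCR-built and transcribed, covering one subunit of a heterodimeric triplet polymerase ribozyme. Frozen incubation at −7 °C followed annealing with a biotinylated primer, partner subunit and triplets, and extended constructs were then gel-excised, streptavidin-captured and taken through RT-PCR. Fitness is the logarithm of genotype enrichment over wild-type enrichment, from inverse-variance-weighted replicate averages of Illumina-sequenced inputs and outputs. […] only genotypes with ≥10 input reads and ≥1 read per output were kept.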

Row | Variant | polymerase ribozyme fitness (log ratio)
1 | A12G U33A A49G A64G G65U G67U G81U G86A C105U | ≤ -4.2
2 | A12G U33G C129A G133C G141C | ≤ -4.2
3 | A12G U44G C85G U90A | ≤ -4.2
4 | A12G U45A C57G U78A G80U C103A C118G | ≤ -4.2
5 | A12G U55A C76A C93A A120G | -3.73
6 | A12G U55C C57G C87G A121G U148A A150C | ≤ -4.2
7 | A12G U61G C85G C105G G117C | ≤ -4.2
8 | A12U A16G A21C A28U G34U U78G C93U C95U C118G U135G | ≤ -4.2
9 | A12U A16U A47C U55G C76U C93G C99U C125A A142C | ≤ -4.2
10 | A12U A16U U45A G59A A66U C96G | ≤ -4.2
11 | A12U A17C A24C G68A | ≤ -4.2
12 | A12U A17C C69U U77G C93U A107G U139A | ≤ -4.2
13 | A12U A17G A22U G48C U61A G71A U145C | ≤ -4.2
14 | A12U A17G A23G C35U G83A C87G G136U | ≤ -4.2
15 | A12U A17U C18U A29U C38G A40C A52C C57U G83A U90G A97U U135C | ≤ -4.2
16 | A12U A17U C72G A91G C149A | ≤ -4.2
17 | A12U A17U U33A A91G C118G C123U | ≤ -4.2
18 | A12U A19C C35U A52G C85A G133U U145C | ≤ -4.2
19 | A12U A19U A22C A60C A73G C93U | ≤ -4.2
20 | A12U A19U A40G C43G G70U U130A U135G U144C A147U | ≤ -4.2
21 | A12U A20G A21C U31A C35G G86U A91G A119U G128C | -3.91

Row | Variant | polymerase ribozyme fitness (log ratio)
22 | A12U A20G G88U A98G A106G C131G | ≤ -4.2
23 | A12U A21C A23U A37U A64C | ≤ -4.2
24 | A12U A21G C43U G50A U77C C149A | ≤ -4.2
25 | A12U A22C A26C A28G U56A A66C C95U C114U | ≤ -4.2
26 | A12U A22C U90G C95A A110U G141C U146C G152A | ≤ -4.2
27 | A12U A22G A60U G71C U135G | ≤ -4.2
28 | A12U A22U C32G C54U C57A | ≤ -4.2
29 | A12U A23C C103A U104G A115G C125G G133U | ≤ -4.2
30 | A12U A23C G68U G83A A106G | ≤ -4.2
31 | A12U A23C G88A | ≤ -4.2
32 | A12U A23U A40U C87A G88C G117U | ≤ -4.2
33 | A12U A24G G42A C57U U77A G84A C103G | ≤ -4.2
34 | A12U A24U C43A G46A U53A U55A C57U A60G G80U C93G | ≤ -4.2
35 | A12U A26U A29U A60G G86A | ≤ -4.2
36 | A12U A26U C27U A52C G65A G133A | ≤ -4.2
37 | A12U A26U G71A G88U A110C | ≤ -4.2
38 | A12U A28G A40G G46U C93G C95G A137C | ≤ -4.2
39 | A12U A28U A37U C75A C87U | ≤ -4.2
40 | A12U A28U A89U A120C | ≤ -4.2
41 | A12U A29G C96A C116G A121G C149G | ≤ -4.2
42 | A12U A29U A52C G92U | ≤ -4.2

Row | Variant | polymerase ribozyme fitness (log ratio)
43 | A12U A29U U31A G42A C43G G83A C87U | ≤ -4.2
44 | A12U A30C G86A | ≤ -4.2
45 | A12U A30G A39G U45A U101G | ≤ -4.2
46 | A12U A37C G59A C95G U102G A137U | ≤ -4.2
47 | A12U A37C U56A A60C C76A G92A U135C G140C | ≤ -4.2
48 | A12U A37G C87A G92U C96G C99A U104C A150G | ≤ -4.2
49 | A12U A37U G42U A49G U56A G80C G92U C105A U145C A150C | ≤ -4.2
50 | A12U A39G A47U C54G C75U G92C | ≤ -4.2
51 | A12U A39G C95U | -2.3
52 | A12U A39G G48C C93U U127G G140C | ≤ -4.2
53 | A12U A39U G70A G100C A120C | ≤ -4.2
54 | A12U A39U U53G G126U | -4.09
55 | A12U A39U U55A G68A C96U U145G | ≤ -4.2
56 | A12U A40C G46U G58A G88U C99G U151A | ≤ -4.2
57 | A12U A40G A97U U134C A138G | ≤ -4.2
58 | A12U A47C A52C U56G A64C G86A A89G C99U | ≤ -4.2
59 | A12U A47C G48C C95U A142C | ≤ -4.2
60 | A12U A47G C76A C85G A150U | ≤ -4.2
61 | A12U A47G G62A C69G C96G C105U | ≤ -4.2
62 | A12U A49C | ≤ -4.2
63 | A12U A49C U55A A66U C72A C85U | ≤ -4.2

Row | Variant | polymerase ribozyme fitness (log ratio)
64 | A12U A52G C96U A120C G152U | ≤ -4.2
65 | A12U A89C G128A U130G U134C | ≤ -4.2
66 | A12U A122U A147C | -0.484
67 | A12U A147U | 0.945
68 | A12U C14A G42A C96G U111G A122U | ≤ -4.2
69 | A12U C14G | -2.05
70 | A12U C14G A29C C32U U45A G80C | ≤ -4.2
71 | A12U C14U A23C A28U C96U G100A A115U | ≤ -4.2
72 | A12U C18U A41G G62A A64G U102A A107C C108U G152U | ≤ -4.2
73 | A12U C18U A47G C85A C93A A98C A121U | ≤ -4.2
74 | A12U C27U A29U G84U G92A | ≤ -4.2
75 | A12U C27U C38U G59U C63A C93A | -4.12
76 | A12U C27U G50A C76G | ≤ -4.2
77 | A12U C32G A91G | ≤ -4.2
78 | A12U C32G G58C G70A C95U G124U G152A | ≤ -4.2
79 | A12U C35A C38U U90G G92A G140U U151A | ≤ -4.2
80 | A12U C35A G50U G92A G128C | ≤ -4.2
81 | A12U C35G C93G U109G | ≤ -4.2
82 | A12U C35G U53G A66U A73G C85A C95G | ≤ -4.2
83 | A12U C36G G92C A147G | ≤ -4.2
